# The supplement of paper PMC11417369
# The list shows a part of the results.
# Tested on: PfSIP2 AP2 domain 1 (GST-tagged)
# Experiment: gcPBM binding intensity (ln(normalized median fluorescence intensity)); higher = stronger DNA binding
# Summary of the method: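 For binding intensity, the highest Masliner-normalised natural-log median intensity across replicate spots of either probe orientation was taken. Protein bound to the array was stained with Alexa488 anti-GST antibody and scanned at 488 nm. The protein, GST-tagged P. falciparum DNA-binding domains from E. coli at about 25 μg on average, had been applied for 1 h to an Agilent 4 × 180k array of primer-extended double-stranded 36-bp intergenic genomic probes and negative controls.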
row,Sequence,gcPBM binding intensity (ln)
1,AAGAAAAATGTGTTTTTTTTTTTTTTTTTTTTCAAT [TGCATGCA_negctrl_site404],6.56
2,CTTTTTTTTTTAAATAGTACTTTCTCGTATACTCAT [XGTACX_site1842],6.87
3,TGTGAAATAAAATTTATACACACTTGCTAAATGATC [CACACA_site181],6.75
4,TTTTTTTATTTTTGTTGTACTTATAATTCTGTAAAA [XGTACX_site7344],6.97
5,TATAAATATAAATACACACACACACGCCAAAGCGTA [CACACA_site6181],6.82
6,TACAAATTAATATGTACACACAAATATAAATATGTA [CACACA_site7016],7.07
7,TACGTTATATACAACTGTACTTGGATAATTATTAAC [XGTACX_site5614],7.13
8,AAGTTTTTTTCTTTTTTTCTCTCTTTTTTTTTTTTT [XGTACX_negctrl_site613],6.83
9,TTTTCTTTTTTGAACTGTACGCGTAAATTTAAAAAG [XGTACX_site882],7.73
10,TTTTTTATTTATTGTTATACATCTTACTACTTATAA [GTGCAC_negctrl_site381],7.18
11,AATATATTTATATATAGTACTTTTATAATATCGTTT [XGTACX_site6658],6.91
12,AATACACATAATACATGTACTCACATTGTTATAACA [XGTACX_site4129],7.17
13,GATATGATTAACTTATGTTATTCTTGATGATTACGT [CACACA_negctrl_site354],6.94
14,AAATATTTTTTAATGTGTACATAGAACATATATATA [XGTACX_site3136],7.45
15,ATAATATATATATTATGTACATATAAATTTTTTTTT [XGTACX_site5826],7.01
16,TATATACCTATATATACACACAAATACATAAGCTTC [CACACA_site1369],6.97
17,TTTTTTAAAAAACAAACACACACGTAGAAAAAAAAA [CACACA_site826],7.11
18,TAATTATATGGATACACACACATACATTTACATAAC [CACACA_site5744],7.13
19,TATAACTATAAAAGGAGTACTATATATATATATATA [XGTACX_site1388],9.29
20,ACTTATTTATTTTTAGTGCATTTAGTTTTATTTTAT,9.27
21,AGTATACACAAACACACACACACAAAAAAAAAAAAA [CACACA_site8036],7.1
22,AATAGTACAAAAAAAAAAAAAAAAAAAAAAAAAAAA [CACACA_negctrl_site1376],7.26

row,Sequence,gcPBM binding intensity (ln)
1,TCTACAAAATTATCATGTACATATTATTATAATTAT [XGTACX_site6585],7.28
2,TAAAAAGAAAAAAAGAGTACAAACAAAATAATAATT [XGTACX_site6071],6.83
3,TATTTGCAATGCAAATGTACATGAATTTTTTTAATG [XGTACX_site7474],6.78
4,ACCTAATATTATTAAACATGCACATTTGCATAAATA [TGCATGCA_site870],8.28
5,AAATAATTCAAAAAAACACACAAATTACAAAATAAA [CACACA_site269],6.95
6,CAAAATGAAAGGAAAAGTACATTTAAATGAATAAAT [XGTACX_site8241],6.98
7,GTATAATATTCATATTCACACATTAAAATATATTTA [CACACA_site4879],6.99
8,TAAAAATATATTATATGTACGTATAACAATGTATGA [XGTACX_site8606],7.23
9,TACACCTGCACGATTGCACACAAATATGTTTTGAAG [CACACA_site8656],7.84
10,TTATTATTAAAACACACACACAAAAAAAAAAAAAAA [CACACA_site1480],7.43
11,AAAAAAAAAAAAAAAACACACATGTATAATATAATA [CACACA_site2209],7.52
12,TATAGATGTGGTTTATGTACATACTATAAAAAATCA [XGTACX_site1400],7.19
13,TTATATATATATATATAATATATATATATTTAAATA [XGTACX_negctrl_site453],7.42
14,AAGGACAACAAACAAACACACACAAAAAAAAAATAA [CACACA_site9263],7.04
15,AAGAATATAATCTTCACACATATATATATATATATA [CACACA_site5927],9.43
16,TATATATCTTTATGCACACACAAAGAAAATTTTCCT [CACACA_site7366],7.4
17,ATTAATTTAATTTGAATTATTTTATTATATTATTAT [XGTACX_negctrl_site10],6.62
18,GTTTGAATATATCAGGTGCATTTATAATTCATATGA,10.5
19,TAATTAAATATTTCAGTGCATTATTTTATGATCCAT [GTGCAC_site9456],7.94
20,AGATGAACTAAAAAGGTGCTAAATATGTGACCACTG [GTGCAC_site9406],8.42
21,ATTTAGAATGTTCCTACACACCAAATTTAAGTGTGC [CACACA_site7161],6.83
22,TACATACACAGACACACACACATATAAATATAAATA [CACACA_site7641],7.3

row,Sequence,gcPBM binding intensity (ln)
1,TTTTTTTTAGTATGAACACACATATAGATTATAAAA [CACACA_site7391],7.04
2,ATATTATAGATATACACACACACATGCATGCACATA [CACACA_site6203],8.64
3,ATAAGAAGAAGAAAAACACACATATGTAAATATATA [CACACA_site3138],6.82
4,AAATTAGACTATAATACACACATAAAAAAAAAAAAA [CACACA_site6155],6.82
5,AGATATCTTGTGAAATAAAAAAAATAATTGCTTATA [CACACA_negctrl_site798],6.68
6,ATATTATATTATTAATGTACATATATATAATTTTAA [XGTACX_site4974],7.05
7,AAGGCAAACAAACACACACACATATATACCTATATA [CACACA_site5203],7.15
8,TCTTATCCATATATTACACACTATATATAGAAATTA [CACACA_site291],7.19
9,AGAAATGAAATCCAAAAACGAGGAACCAATAACGCA [CACACA_negctrl_site1758],7
10,TCCTTCGAAACTAAAATTCATTTAAAATATTGATAT [CACACA_negctrl_site369],6.99
11,AAAGAAAAAAAAATTACACACATATATTATAGATAT [CACACA_site7495],6.88
12,TACATACATACATACACACACACATATATATATATA [CACACA_site42],9.4
13,TAGGTCCTCATTTTATGTACATAAAGAAATATGATT [XGTACX_site4138],6.91
14,TATTTATAGATATATACACACATATACATATTGTTT [CACACA_site7611],7.02
15,ATATAAACATTTAGTAATCCATATAGGTACTACTGA [CACACA_negctrl_site1249],6.85
16,AAAAAAAATATATAAACACACATATTTATATACGCA [CACACA_site1631],6.75
17,ATATATGCTAATATATGTACTGATTATATCTCTTCA [XGTACX_site7156],6.83
18,TAGTATTAAATATATACACACATATATACATATAGA [CACACA_site2154],6.99
19,TTAATTTTTTTTTCTTGTACACACTATTTTATAATT [XGTACX_site8783],7.19
20,GCAGCAGCATTTTCAGTGCATTATTATATTGTTCAT [GTGCAC_site9926],7.98
21,GTAATAAAATGACATACATGCATTACAATTATGTAA [TGCATGCA_site220],6.75
22,TATTATAATACTTATTGTACTTTTAGGTTAATTTAT [XGTACX_site995],6.82

row,Sequence,gcPBM binding intensity (ln)
1,GTTGCACAATGTTACACACACAATATATATCGTTAA [CACACA_site1275],7.38
2,CCCTTTTTTTTTTAATGTACATATAATTATATATTT [XGTACX_site8568],7.3
3,GGAAACCTTTTTTTTACACACAATATATTAAGACTT [CACACA_site4899],6.93
4,AATTGTACGTAGGGGTATAAAAGCTTAAAAATGGGG [CACACA_negctrl_site1392],7.61
5,AAAGCAAAAGGAAAATAACCAACCCTAATTAACACA [CACACA_negctrl_site530],6.92
6,TTTGTTAAAAATATATTATGAATAAAAATATATTTT [CACACA_negctrl_site170],6.7
7,TTAAAACATAAAAAAAGTACATACAAATATATATAA [XGTACX_site789],7.07
8,TATGTCAATCAAGCAAGTACATATATATATAAATAT [XGTACX_site7554],7.01
9,TACAAAATAACTAGCACACATATGTATAAACATATA [CACACA_site5948],6.83
10,AATTATATTACGAAATGTACATATAATAATGTATAT [XGTACX_site4410],7.01
11,GCCATTGTACCATCCACACACATATATATATGTATA [CACACA_site2704],7.72
12,TTCAAAACTTAAAATCGTACAAGACAATTATTATAT [XGTACX_site6626],7.03
13,CTTTTAATATTAAGATGTACTTAGAATTTTTTTTTT [XGTACX_site8338],6.83
14,CATATATATTTATGTACACACATTAATAAAAAAAAA [CACACA_site5741],7.3
15,TTTTTTGTTATTGGCGTGCACATATCCATTTATAGT,9.96
16,ATATATATAAATAATTGTACTTAAAAAAAAAAAAGG [XGTACX_site6847],7.53
17,AACAGCATATCACATTTCTTCAAAAAAAAATAAAAT [CACACA_negctrl_site733],6.95
18,TGTAGAGCGCAAAGTAGTACTACAAATTATGGAGGG [XGTACX_site3022],7.27
19,TAAACACCCATATAAACACACATACATACATACATA [CACACA_site5383],7.19
20,GATTAATTTAAAAAATGTACATTTTATTGTATAACC [XGTACX_site5539],7.1
21,CCAAGAAACCAAAAAAGTACATACATGGTTATAATT [XGTACX_site4249],6.98
22,ACAATATGTATATATATATATATGCAAATGTATAAA [CACACA_negctrl_site53],7.22
